# Measurements published in the supplement of paper PMC12217912.
# The list shows a part of the results. The full chains were built here from the parent and the listed change. Inactive controls read about 0.05.
# B1: TEV protease; numbered along this chain (parent)
# chain: MGESLFKGPRDYNPISSSICHLTNESDGHTTSLYGIGFGPFIITNKHLFRRNNGTLVVQSLHGVFKVKDTTTLQQHLVDGRDMIIIRMPKDFPPFPQKLKFREPQREERICLVTTNFQTKSMSSMVSDTSCTFPSGDGIFWKHWIQTKDGQCGSPLVSTRDGFIVGIHSASNFTNTNNYFTSVPKNFMELLTNQEAQQWVSGWRLNADSVLWGGHKVFMVKPEEPFQPVKEATQL
# Variants of: B1
# Test: raw area under fraction-flipped curve 0-4 h after induction (AUC4h, not background-subtracted), DNA-recorder readout of cleavage of the substrate (dimensionless); higher = more cleavage of the substrate by the protease variant
# Settings: temperature: 34 °C; time window: 0-4 h after rhamnose induction
# Procedure: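 In vivo DNA recorder in E. coli TOP10(DE3) ΔrhaA at 34 °C. Each TEVp single-site mutant (parent TEVp 0) is paired with a single-site variant of the 7-mer TEVs (canonical ENLYFQ|S). The substrate sits between flexible linkers in a Bxb1-sfGFP-TEVs-SsrA fusion, so cleavage stabilises Bxb1 and speeds flipping of a recombination array, read by NGS. The value is the raw area under the fraction-flipped curve over 0-4 h after rhamnose induction (AUC4h), with ≥20 reads per time point. It is not background-subtracted; inactive controls average about 0.047.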
# 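Also: Bxb1 expression induced with 0.2% (w/v) L-rhamnose at OD600 near 0.5, cultures sampled hourly, flipped fraction per protease–substrate barcode pair counted by paired-end Illumina sequencing.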
Variant,area with substrate ENLFFQS,area with substrate ENLHFQS,area with substrate ENLKFQS,area with substrate ENLNFQS,area with substrate ENLQFQS,area with substrate ENLTFQS,area with substrate ENLVFQS,area with substrate ENLWFQS,area with substrate ENLEFQS,area with substrate ENLLFQS
R51D,0.0925,0.0717,0.0817,0.0746,0.0818,0.0691,0.0543,0.0793,,
T119K,,,,,,,,,0.066,0.0642
P228T,0.0924,,0.0768,0.0586,,,,,0.0723,
P228I,0.0674,0.0421,,0.0597,,,0.0914,,,
S130A,0.0696,0.0696,0.0529,0.0642,0.0976,,,,0.0662,
N206M,0.084,0.0906,0.0782,,,,,,0.0708,
G63E,0.0752,,0.0687,0.0645,0.0605,0.0632,0.0664,0.0509,,
K7F,,0.06,,,0.0621,,,0.0617,0.0458,0.115
W212H,0.0434,,,0.0647,,0.0566,,,,0.0559
D208A,,,0.0932,0.0508,,,0.0508,,0.0758,
N177W,0.0662,0.0618,0.0716,0.062,,,0.0518,0.0339,0.0704,0.0573
N177R,0.0938,,0.09,,0.102,0.0687,,0.0853,,
A170L,,,0.0789,,,,,,,0.107
A170D,,,0.0569,0.0593,,,,,,
A170P,0.0476,,0.0587,,,,,0.066,,
V157T,0.0724,,0.0671,,,,,,,
E223P,0.0698,0.0699,0.0769,,,,,,0.0699,0.122
Q227H,0.0788,,0.0974,0.0656,,,,,0.0496,
S158C,0.0671,0.0679,,0.0571,,,,0.0649,0.0815,0.0623
S158T,,,0.0519,,,,,,,
D149A,0.091,0.087,0.0817,0.0632,0.0843,,,,,0.0794
S182D,0.0561,,,,,,0.0594,0.0553,,0.0529
V78Q,,,,0.0543,,,,,,
V78H,0.0649,,,0.0603,0.0625,,0.0683,0.0429,0.0649,0.0588

# Same assay, conditions: temperature: 34 °C; time window: 0-4 h after rhamnose induction
Variant,area with substrate ENLPFQS,area with substrate ENLDFQS,area with substrate ENLRFQS,area with substrate ENLSFQS,area with substrate ENLGFQS,area with substrate ENLMFQS,area with substrate ENLIFQS
T119K,0.0464,,,,,,
P228T,,0.0662,0.0607,0.0452,,,
P228I,,0.0547,0.061,0.0538,,,
S130A,0.0529,,0.0606,0.0499,0.0486,,
N206M,0.0659,0.0716,0.0504,0.0598,,0.0411,
G63E,,,0.0681,,,0.0636,0.0718
K7F,,,0.0751,,,,
D208A,,,0.0593,0.0557,,,
N177W,0.0631,0.0611,0.0647,0.0555,,0.0735,
N177R,0.0607,0.0637,,,,,
A170L,,0.0332,,,,,
A170D,,0.0662,,,,,
A170P,,,0.0637,,,,
V157T,,0.0584,0.0773,,,,0.076
E223P,0.0672,0.065,,0.0649,,,0.0644
Q227H,0.0599,0.0177,,,,,
S158C,0.0554,0.0604,,0.0599,,,0.0751
S158T,,,,,0.0653,,
D149A,0.0472,,0.0644,0.0546,,,0.0887
S182D,,,,0.0362,0.0603,0.0592,
V78Q,,,,,0.0659,,
V78H,,,0.062,,0.0733,,0.0593
